Measured values reported in PubChem BioAssay AID360 (National Center for Advancing Translational Sciences (NCATS), 2006).
In all, about 48,000 compounds went through this assay and about 550 (1.1%) were called active. Inconclusive results (about 4%) are left out. Cut-off read from the data, not from the text of the source: active = potency below about 15 µM; inconclusive = mostly about 16 µM to 33 µM; inactive = weaker than that. The list shows a part of the results.
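Note: the screen sought inhibitors.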
Potency is the fitted concentration of half-maximal effect.

These molecules were tested against Lysosomal acid glucosylceramidase (Homo sapiens) (UniProt P04062) (assay: Glucocerebrosidase). Conditions: purified enzyme, resorufin glucoside fluorescence (screen aimed at inhibitors), 20 min; series mostly up to 77 µM.
UniProt P04062, sequence (P04062 whole entry, looked up): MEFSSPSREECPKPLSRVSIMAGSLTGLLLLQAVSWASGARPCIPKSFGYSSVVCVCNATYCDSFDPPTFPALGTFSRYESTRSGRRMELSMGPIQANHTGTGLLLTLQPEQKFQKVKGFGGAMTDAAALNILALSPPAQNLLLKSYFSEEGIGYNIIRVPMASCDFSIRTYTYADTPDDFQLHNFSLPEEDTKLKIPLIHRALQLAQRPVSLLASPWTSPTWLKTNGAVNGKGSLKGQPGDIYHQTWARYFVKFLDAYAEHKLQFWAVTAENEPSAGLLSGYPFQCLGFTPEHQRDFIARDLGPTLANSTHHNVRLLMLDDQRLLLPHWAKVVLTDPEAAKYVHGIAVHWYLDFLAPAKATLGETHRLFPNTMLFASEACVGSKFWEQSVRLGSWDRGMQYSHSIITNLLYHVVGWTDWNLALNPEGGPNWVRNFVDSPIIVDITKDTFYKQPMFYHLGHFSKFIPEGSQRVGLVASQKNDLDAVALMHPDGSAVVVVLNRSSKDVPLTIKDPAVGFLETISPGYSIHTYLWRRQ
Summary of the method: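 Wild-type enzyme at 0.2 nM final in 50mM citric acid/KH2PO4, 10mM sodium taurocholate, 0.01% tween-20, pH 5.9, with resorufin beta-D-glucopyranoside at 30 uM final. Compounds titrated, 20 min at RT, red fluorescence read; AC50 from titration.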
With `NC(=O)c1cc(N)ccc1N1CCCC1` the Potency was inactive: > 76.9 µM. In the case of `Cc1sc2ncn(CC(=O)OCC(=O)NC(C)(C)C)c(=O)c2c1C`, the Potency is reported as inactive: > 76.9 µM. For `O=C(Cn1cnc2scc(-c3ccccc3)c2c1=O)N1CCOCC1`, the Potency was inactive: > 76.9 µM. With `Cc1c(Cl)cccc1-n1nnnc1-c1cccs1` the Potency was inactive: > 76.9 µM. With `Cc1c(NC(=O)Cn2nc(C(F)(F)F)c3c2CCCC3)c(=O)n(-c2ccccc2)n1C` the Potency was inactive: > 76.9 µM. `Cc1ccc2c(c1)N(CC(=O)NCc1cccs1)C(=O)CO2` was tested, and the Potency was inactive: > 76.9 µM. In the case of `CCOC(=O)C1CCCN(C(=O)c2cn(CC)c(=O)c3cc(OC)c(OC)cc23)C1` (stereo unspecified), the Potency is reported as inactive: > 76.9 µM. In the case of `COC(=O)C(O)(NC(=O)NC(C)=O)C(F)(F)F` (stereo unspecified), the Potency is reported as inactive: > 76.9 µM. For `COc1ccc(Cn2nnnc2C(c2cc3cc(C)ccc3[nH]c2=O)N2CCOCC2)cc1` (stereo unspecified), the Potency was inactive: > 76.9 µM. With `CCCCOc1ccccc1Cn1c(=O)oc2ccc(C)cc21` the Potency was inactive: > 76.9 µM. With `CC1CC(C)(C)CC2(C1)NC(=O)N(CC(=O)NCC(c1ccco1)N1CCCCC1)C2=O` (stereo unspecified) the Potency was inactive: > 76.9 µM. With `O=C1SC(SCc2ccccc2)=N/C1=C\c1ccco1` the Potency was inactive: > 76.9 µM. `CC(C)c1nc2sc3c(NCc4ccco4)ncnc3c2c2c1COC(C)(C)C2` was tested, and the Potency was inactive: > 76.9 µM. `O=C(CSc1nnc(C2COc3ccccc3O2)o1)N1CCCc2ccccc21` (stereo unspecified) was tested, and the Potency was inactive: > 76.9 µM. For `CCC(OC(=O)c1cc2sccc2n1C)C(=O)NCc1ccco1` (stereo unspecified), the Potency was inactive: > 76.9 µM. With `COc1cc(NC(=O)CN2CCN(c3ccccc3F)CC2)cc(OC)c1` the Potency was inactive: > 76.9 µM. In the case of `CCOc1ccc(C(=O)N2CCCC2)cc1OC`, the Potency is reported as inactive: > 76.9 µM. `C=CCN=C(NC#N)SCC(=O)NCc1ccccc1` was tested, and the Potency was inactive: > 76.9 µM. For `COCCN(C(C)=O)c1nnc(-c2cnccn2)s1`, the Potency was inactive: > 76.9 µM. In the case of `Fc1ccccc1N1CCN(c2ncnc3[nH]ncc23)CC1`, the Potency is reported as inactive: > 76.9 µM. In the case of `CC(C)NC(=O)Cn1nnc(-c2ccc(Cl)cc2)n1`, the Potency is reported as inactive: > 76.9 µM. `Cc1ccc2c(c1)N(CCC(=O)NCc1ccco1)C(=O)CO2` was tested, and the Potency was inactive: > 76.9 µM. For `Cc1ccc(Nc2cc(=O)n(C3CCCCC3)c(=O)[nH]2)cc1C`, the Potency was inactive: > 76.9 µM. With `CCc1ccc(CCC(=O)Nc2nnc(C)s2)o1` the Potency was inactive: > 76.9 µM. `Cc1cc(C(=O)OCc2nnc(-c3ccccc3)o2)c(C)n1-c1ccccc1` was tested, and the Potency was inactive: > 76.9 µM. With `CCc1ccc(-c2nc(CN3CCC(C(=O)NCc4ccc(F)cc4)CC3)c(C)o2)cc1` the Potency was inactive: > 76.9 µM. For `O=S(=O)(Cc1ccccc1)N1CCN(C2Cc3ccccc3C2)CC1`, the Potency was inactive: > 76.9 µM. `CCOC(=O)c1cnc(SCC(=O)NCc2ccco2)nc1N` was tested, and the Potency was inactive: > 76.9 µM. With `COC(=O)C1=C(C)N(C2CCCC2)C(=O)C1(NC(C)=O)C(F)(F)F` (stereo unspecified) the Potency was inactive: > 76.9 µM. `Nc1nc(-c2ccccc2)cc(-c2ccccc2O)n1` was tested, and the Potency was inactive: > 76.9 µM. In the case of `COc1ccc(S(=O)(=O)N(C)CC(=O)Nc2cccc(C(C)=O)c2)cc1`, the Potency is reported as inactive: > 76.9 µM. In the case of `CCOC(=O)N1CCC(NC(=O)C2CCN(c3ccc(N4CCOCC4)nn3)CC2)CC1`, the Potency is reported as “inactive”. For `Nc1nc(-c2ccccc2)cc(C(F)(F)F)n1`, the Potency was inactive: > 76.9 µM. In the case of `CC(C)c1nc2oc3c(NCc4cccnc4)ncnc3c2c2c1CCC2`, the Potency is reported as inactive: > 76.9 µM. For `CN(CCc1ccccn1)Cc1ccc(Cl)cc1`, the Potency was inactive: > 76.9 µM. In the case of `CCOCCCNC(=O)c1ccccc1Br`, the Potency is reported as inactive: > 76.9 µM. `Cn1c(=O)[nH]c(=O)c2[nH]c(N(Cc3ccccc3)Cc3ccccc3)nc21` was tested, and the Potency was inactive: > 76.9 µM. With `CC(=O)NC(CCS(C)(=O)=O)C(=O)Nc1ccccc1Cl` (stereo unspecified) the Potency was inactive: > 76.9 µM. In the case of `Cc1c(C(=O)O)oc2ccc(S(=O)(=O)N(CC(C)C)CC(C)C)cc12`, the Potency is reported as inactive: > 76.9 µM. With `COc1ccc(CSc2nnc(N)s2)cc1F` the Potency was inactive: > 76.9 µM. `O=C(O)CSc1nnc(Cc2ccccc2)n1-c1ccccc1` was tested, and the Potency was inactive: > 76.9 µM. For `Cc1cc(S(=O)(=O)N(Cc2ccccc2)Cc2ccc(N(C)C)cc2)ccc1-n1cnnn1`, the Potency was active: 8.48 µM. `Cc1nnc(SCc2ccc(C(=O)c3ccc(Cl)cc3)o2)n1-c1ccccc1` was tested, and the Potency was inactive: > 76.9 µM. `CC(=O)Nc1cccc(NC(=O)C2CCCN2C(=O)Nc2cccc(C)c2)c1` (stereo unspecified) was tested, and the Potency was inactive: > 76.9 µM. For `O=C(NC1CCCCC1)n1c(=O)oc2ccccc21`, the Potency was inactive: > 76.9 µM. `N#Cc1cccc(NC(=O)CSc2ccccc2)c1` was tested, and the Potency was inactive: > 76.9 µM. In the case of `O=C(Nc1cnccn1)c1csc2ccccc12`, the Potency is reported as inactive: > 76.9 µM. `COC(=O)c1ccc(C(=O)OC)c(NC(=O)COC(=O)C23CC4CC(CC(O)(C4)C2)C3)c1` was tested, and the Potency was inactive: > 76.9 µM. In the case of `COc1ccc(-n2nnnc2SCC(=O)N2C(C)CCCC2C)c(OC)c1` (stereo unspecified), the Potency is reported as inactive: > 76.9 µM. `COCCNC(=O)NC1(C(F)(F)F)Oc2ccc(Cl)cc2O1` (stereo unspecified) was tested, and the Potency was “inactive”. `C/C(Cl)=C\Cn1c(NCCCn2ccnc2)nc2c1c(=O)n(C)c(=O)n2C` was tested, and the Potency was inactive: > 76.9 µM. With `COc1ccccc1-c1nc(C#N)c(N2CCN(C(c3ccccc3)c3ccccc3)CC2)o1` the Potency was inactive: > 76.9 µM. With `N#CCCn1c(SCC(=O)NCCc2ccc(F)cc2)nc2ccccc21` the Potency was inactive: > 76.9 µM. In the case of `CN1CCN(CC(=O)Nc2c(C(=O)C3CC3)oc3ccccc23)CC1`, the Potency is reported as inactive: > 76.9 µM. In the case of `COc1ccc(N2CCN(C(=O)c3cn(C4CCCC4)c(=O)c4c3c3ccccc3n4C)CC2)cc1`, the Potency is reported as inactive: > 76.9 µM. `Cc1ccc(-n2nc(C)c(C3C(C#N)=C(N)OC4=C3C(=O)CC(C)(C)C4)c2Cl)cc1` (stereo unspecified) was tested, and the Potency was active: 4.79 µM. In the case of `COc1cccc(Cn2c(-c3nonc3N)nc3ccccc32)c1`, the Potency is reported as inactive: > 76.9 µM. For `COC(=O)C1=C(C)NC(=O)C1(NC(=O)CN1CCCC1=O)C(F)(F)F` (stereo unspecified), the Potency was inactive: > 76.9 µM. For `Cc1c(Nc2nc3ccccc3nc2NS(=O)(=O)c2ccccc2)c(=O)n(-c2ccccc2)n1C`, the Potency was inactive: > 76.9 µM. In the case of `Cc1ccc(C)c(C(=O)CCC(=O)Nc2cccnc2)c1`, the Potency is reported as inactive: > 76.9 µM. `N#CCSc1nc2[nH]ncc2c(=O)n1-c1ccccc1Br` was tested, and the Potency was inactive: > 76.9 µM. In the case of `N#CC(=C1CCCC1)c1nc(-c2ccccc2O)cs1`, the Potency is reported as inactive: > 76.9 µM. For `CCc1ccccc1N(CC)C(=O)c1cn(CC)c(=O)c2cc(OC)c(OC)cc12`, the Potency was inactive: > 76.9 µM. For `O=C(CSCc1ccccc1)N1CCN(Cc2ccc3c(c2)OCO3)CC1`, the Potency was inactive: > 76.9 µM. `CCO/C(C)=N/n1c2nc3ccccc3nc2c2c(=O)n(C3CCCC3)c(C)nc21` was tested, and the Potency was inactive: > 76.9 µM. `Cc1ccc(C)c(S(=O)(=O)NCc2cccnc2)c1` was tested, and the Potency was inactive: > 76.9 µM. `Cc1nnc(SCC(=O)Nc2ccc(Oc3ccccc3)cc2)n1N` was tested, and the Potency was inactive: > 76.9 µM. In the case of `CC(C(=O)O)C1SC(=O)NC1=O` (stereo unspecified), the Potency is reported as inactive: > 76.9 µM. For `CCOC(=O)CSc1nnc(-c2cccs2)n1-c1ccccc1`, the Potency was inactive: > 76.9 µM. With `CSCC[C@H](NC(=O)Nc1cccc(C(F)(F)F)c1)C(=O)O` the Potency was inactive: > 76.9 µM. For `CCN(CC)c1ccc(-c2nn3c(-c4ccccc4OC)nnc3s2)cc1`, the Potency was inactive: > 76.9 µM. `Cc1ccc2[nH]c(=O)c(CN(CCCO)S(=O)(=O)c3c(C)ccc4nsnc34)cc2c1` was tested, and the Potency was inactive: > 76.9 µM. With `CCCOC(=O)CSc1nc(N)c(C#N)c(CC)c1C#N` the Potency was inactive: > 76.9 µM. For `CC(C)(CN=C1NS(=O)(=O)c2ccccc21)CNC(=O)CN1C(=O)c2ccccc2C1=O`, the Potency was inactive: > 76.9 µM. With `Cc1ccccc1NC(=O)Cn1cnc2c(oc3ccccc32)c1=O` the Potency was “inactive”. For `CCn1c(CSc2nncn2-c2ccc(OC)cc2)nc2cc(S(=O)(=O)N(C)C)ccc21`, the Potency was inactive: > 76.9 µM. With `O=C(NCc1ccc(F)cc1)C(c1cccs1)N(C(=O)c1csnn1)C1CC1` (stereo unspecified) the Potency was inactive: > 76.9 µM. With `Cc1cccc2[nH]c3c(=O)n(CCN4CCNCC4)cnc3c12` the Potency was inactive: > 76.9 µM. In the case of `CCn1c(Cc2ccccc2)nnc1SCC(=O)Nc1nc2ccccc2s1`, the Potency is reported as inactive: > 76.9 µM. `CCSc1ccccc1C(=O)NCc1ccc2c(c1)OCO2` was tested, and the Potency was inactive: > 76.9 µM. With `O=C(CSc1nc2ccccc2o1)N1CCN(c2ccc(Cl)cc2)CC1` the Potency was inactive: > 76.9 µM. With `Cc1ccc(C)c(S(=O)(=O)NC(CC(C)C)C(=O)O)c1` (stereo unspecified) the Potency was inactive: > 76.9 µM. `COC(=O)n1c(SC)nc2ccccc21` was tested, and the Potency was inactive: > 76.9 µM. For `CCCCN(CC)CCNc1c(N2CCN(C(=O)OCC)CC2)c(=O)c1=O`, the Potency was inactive: > 76.9 µM. For `O=C(Nc1nccs1)c1nc(-c2ccccc2)n(-c2ccccc2)n1`, the Potency was inactive: > 76.9 µM. `COc1ccc(CNC(=O)C(C#N)c2nc3ccccc3nc2N2CCCC2)cc1` (stereo unspecified) was tested, and the Potency was inactive: > 76.9 µM. For `Cc1cccn2c(=O)c3cc(C(=O)N4COCC4(C)C)n(C)c3nc12`, the Potency was inactive: > 76.9 µM. In the case of `Cc1nnc(SCC(=O)N2CCc3ccccc32)n1-c1ccccc1`, the Potency is reported as inactive: > 76.9 µM. For `COc1cccc(C(=O)CN2CCC(NC(=O)NC3CCCCC3)CC2)c1`, the Potency was inactive: > 76.9 µM. In the case of `CCOc1ncccc1C(=O)OCc1cn2cc(Cl)ccc2n1`, the Potency is reported as inactive: > 76.9 µM. In the case of `O=C(NCc1ccco1)c1cccs1`, the Potency is reported as inactive: > 76.9 µM.
